Our source for the self-cleavage values is the RNAGym collection of RNA variant scans (doi:10.1093/nar/gkz1192).

The source gives no read counts; variants with many changes may rest on few reads.

B1: CPEB3 Ribozyme (parent)
chain: UAACAGGGGGCCACAGCAGAAGCGUUCACGUCGCAGCCCCUGUCAGAUUCUGGUGAAUCUGCGAAUUCUGCUGUAUAUCUC

In this data set the parent is B1. In words: self-cleavage, relative activity (ratio to wild type); higher = more cleavage; in vitro, sequencing. The method, boiled down:
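Relative activity was defined as the cleaved/total read fraction for a variant divided by the same fraction for the unmutated ribozyme. CPEB3 self-cleaving ribozyme libraries were made by rounds of error-prone PCR, barcoded, and transcribed in vitro with T7 RNA polymerase for 5 hours at 37°C, and cleavage ran through transcription plus a 15 min DNase I step before EDTA. Illumina sequencing of template-switched reverse transcripts gave the reads, and DNA sequencing mapped the barcodes. Averages come from three batches, using variants with at least 5 reads.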
As for UAACAGGGGGCCACAGCAGAAGCGUUCAUGUCGCAGCCCCCGUCAGAUCCUGGUGAAUCUGCGAAUUCCGCUGUAUAUCUC [C29U U41C U49C U69C], the self-cleavage amounted to 0.07.

In the case of UAACAGGGGGCCACAGCAGAAGCGUUCAUGUCGCAGCCCCUGUCAGAUUCUGGUGAAUCUGCGAAUUCCGCUGUAUACCUC [C29U U69C U78C], the self-cleavage came out at 0.16.

As for UAACAGGGGGCCACAGCAGAAGCGUUCACAUCGCAACCCCUGUCAGAUUCUGGUGAAUCUGCGAAUCCUGCUGUAUAUCUC [G30A G36A U67C], the self-cleavage was determined as 0.04.

Turning to UAACAGGGGGCCACAGCAGAAGCGUUCAUGUCGCAGCCCCUGUCAGAUUCUGGUGAAUCUGCGAAUUCCGCCGUAUAUCUC [C29U U69C U72C], the self-cleavage is 0.07.

Regarding UAACAGGGGGCCACAGCAGAAGCGUUCAUGUCGCAGCCCCUGUCAGAUUCUGGCGAAUCUGCGAGCUCUGCUGUAUACCAC [C29U U54C A65G U66C U78C U80A], the self-cleavage turned out to be 0.08.

Consider UAACAGGGGGCCACAGCAGAAGCGUUCAUGUCGCAGCCCCUGUCAGAUUCUGGUGAAUCCGCGAAUUCUGCAGUAUAUCUC [C29U U60C U72A], for which the self-cleavage came to 0.17.

UAACAGGGGGCCACAGCAGAAGCGUUCAUGUCGCAGCCCCUGUCAGAUUCUGGUGUAUCUGCAAUUCCUGCUGGAUAUCUC [C29U A56U G63A A65U U67C U74G]: the self-cleavage was 0.11.

With UAACAGGGGGCCACAGCAGAAGCGUUCACCUCGCAGCCCCUGUCAGAUUCUGGUGAAUCUGCGAACUCAGCUGUAUAUCUC [G30C U66C U69A], the self-cleavage was 0.06.

Consider UAACAGGGGGCCACAGCAGAAGCGUUCACAUCGCAGCCCCUGUCAGAUUCUGGUGAAUCUGCGGAUUCUGCCGAAUAUCUC [G30A A64G U72C U74A], for which the self-cleavage was found to be 0.14.

As to UAACAGGGGGCCACAGCAGAAGCGUUCACACCGCAGCCCCUGUCAGACUCUGGUGAAUCUGCGAAUUCUGCUGUGUACCUC [G30A U31C U48C A75G U78C], the self-cleavage came to 0.07.

For UAACAGGGGGCCACAGCAGAAGCGUUCAUGUCGCAGCCCCAGUCAGAUUCGGGUGAAUCUGCGAAUUCUGCUGUAUUUCUC [C29U U41A U51G A77U], the self-cleavage came to 0.29.

As to UAACAGGGGGCCACAGCAGAAGCGUUCACCUCGCAGUCCCUGUCUGAUUCUGGUGAAUCUGCGAAUUCUGCUGUAUAUCUC [G30C C37U A45U], the self-cleavage is 0.18.

With UAACAGGGGGCCACAGCAGAAGCGUUCACAUCGCAGCCCCUGUCAGAUUCUGGUGAAUCUGCGUGUUCUGCUGUAUAUCUC [G30A A64U A65G], the self-cleavage came out at 0.22.

Regarding UAACAGGGGGCCACAGCAGAAGCGUUCAUGUCGCAGCCCCCGUCAGAUUCUGGUGAAUCUGCGAGUUCUGCUGUAUAUCUC [C29U U41C A65G], the self-cleavage stood at 0.27.

For UAACAGGGGGCCACAGCAGAAGCGUUCACAUCGCAGCCCCUGUCAGACUCUGGUGAAUCUGCGAAUUCCGCUGCAUAUCUC [G30A U48C U69C U74C], the self-cleavage turned out to be 0.13.

In the case of UAACAGGGGGCCACAGCAGAAGCGUUCAUGUCGCAGCCCCUGUCAGAUUCUGGGGAGUCUGCGAACACUGCUGUAUAUCUC [C29U U54G A57G U66C U67A], the self-cleavage is 0.16.

As for UAACAGGGGGCCACAGCAGAAGCGUUCACAUCGCAGCCCCUGUCAGAUACUGGUGAAUCUGCGGAUUCUGCUGUAUAUCUC [G30A U49A A64G], the self-cleavage is 0.08.

Regarding UAACAGGGGGCCACAGCAGAAGCGUUCACUUCGCAGCCCCCGUCAGAUUCUGGUGAAUAUGCGAAUUCUGCUGUAUAUCUC [G30U U41C C59A], the self-cleavage amounted to 0.13.

Take UAACAGGGGGCCACAGCAGAAGCGUUCACUUCGCAGCCCCUGUCAGAAUCUGGUGAAUCUGCGAAUUCUGCCGUAUAUCUC [G30U U48A U72C]: the self-cleavage was 0.14.

For UAACAGGGGGCCACAGCAGAAGCGUUCACUUCGCAGCCUCUGUCAGAUCCUGGUGAUUCCCCGAAUUCUGCUGUAUAUCUC [G30U C39U U49C A57U U60C G61C], the self-cleavage was found to be 0.06.

As to UAACAGGGGGCCACAGCAGAAGCGUUCACAACGCAGCCCCUGUCAGAUUCUGGUGAAUUUGCGAAUUCUGCUGUAUACCUC [G30A U31A C59U U78C], the self-cleavage is 0.06.

With UAACAGGGGGCCACAGCAGAAGCGUUCAUGUCGCAGCCUCUGUCAGAUUCUGGUGGAUCUGCGGAUUCUGCUGUAUAUCUC [C29U C39U A56G A64G], the self-cleavage worked out at 0.11.

Turning to UAACAGGGGGCCACAGCAGAAGCGUUCACAUCGCAGCCCCUGUCGGAUUCUGGUGAAGCUGCGAAUUCUGCUGUAUAUCUC [G30A A45G U58G], the self-cleavage is 0.09.

Turning to UAACAGGGGGCCACAGCAGAAGCGUUCACAUCGCAGCCCCUGUCAGAUCCCGGUGAAUCUGCGAAUUCUGCUGCAUAUCUC [G30A U49C U51C U74C], the self-cleavage was found to be 0.21.

For UAACAGGGGGCCACAGCAGAAGCGUUCACCUCGCAGCCCCUGUCAGAUUCUGGUGAAUCUGCGAAAUCUGCUGCAUAUCCC [G30C U66A U74C U80C], the self-cleavage was found to be 0.34.

Consider UAACAGGGGGCCACAGCAGAAGCGUUCACUUCGCAGUCCCUGUCAGAUUCUGGGGAAUCUGCGAAUACUGCUGUAUAUCUC [G30U C37U U54G U67A], for which the self-cleavage came to 0.07.

Regarding UAACAGGGGGCCACAGCAGAAGCGUUCACCUCGCAGCCCCUGUCAGAUUCUGGUGAAUCUGCGACUUCAGCUGUAUAUCUC [G30C A65C U69A], the self-cleavage turned out to be 0.09.

Regarding UAACAGGGGGCCACAGCAGAAGCGUUCAUGUCGCAGCCCCAGUCAGAUUCUGGUGAAUCUGCGGAUUCUGCUGUACAUCUC [C29U U41A A64G U76C], the self-cleavage turned out to be 0.17.

As for UAACAGGGGGCCACAGCAGAAGCGUUCACACCGCAGCCCCUGUCAGAUUCUGGUGAAUCUGCGAACUCUGCUGUAUAUCUC [G30A U31C U66C], the self-cleavage amounted to 0.13.

As for UAACAGGGGGCCACAGCAGAAGCGUUCAUGUCGCAGCUCCUGUCAGAUUCUGGUGAAUCUGCGAAUCCUGCUGUAUGUCUC [C29U C38U U67C A77G], the self-cleavage was found to be 0.09.

On to UAACAGGGGGCCACAGCAGAAGCGUUCACACCGCAGCCCCUGUCAGAUUCUGGUGAAUCUGCGAAUCCUGCUGUAUAUCUC [G30A U31C U67C], for which the self-cleavage worked out at 0.08.

UAACAGGGGGCCACAGCAGAAGCGUUCAUGUCGCAGCCCCUGUCAGAUUCUGGUGAAUCUGCGAAUUCUGCUGUUUUUCUC [C29U A75U A77U]: the self-cleavage was determined as 0.51.

Consider UAACAGGGGGCCACAGCAGAAGCGUUCAUGUCGCAGCCCCUGUCAGAUUCUGGUGAAUCUGCGAGUUCUGCAGUAUAUCUC [C29U A65G U72A], for which the self-cleavage came to 0.18.

Take UAACAGGGGGCCACAGCAGAAGCGUUCACAUCGGAGCCCCUGUCAGAUUCUGGUGAAUCUGCGAAUUCUGCUGUACAUCUC [G30A C34G U76C]: the self-cleavage was 0.21.
